According to US11357833B2, “Use of lysin to restore/augment antibacterial activity in the presence of pulmonary surfactant of antibiotics inhibited thereby” (priority 2015, dated 2022):
Values after ≈ are worked out from the molar mass of the structure shown.

B1: CF-301: Bacteriophage lysin polypeptide, SEQ ID NO: 1 (GenBank accession ZP 03625529), antimicrobial agent against Staphylococcus aureus (protein, listed as Streptococcus suis)
chain: MTTVNEALNNVRAQVGSGVSVGNGECYALASWYERMISPDATVGLGAGVGWVSGAIGDTISAKNIGSSYNWQANGWTVSTSGPFKAGQIVTLGATPGNPYGHVVIVEAVDGDRLTILEQNYGGKRYPVRNYYSAASYRQQVVHYITPPGTVAQSAPNLAGSRSYRETGTMTVTVDALNVRRAPNTSGEIVAVYKRGESFDYDTVIIDVNGYVWVSYIGGSGKRNYVATGATKDGKRFGNAWGTFK

Test system: vancomycin-intermediate Staphylococcus aureus (VISA) strain ATCC 700699
Test: MIC by broth microdilution, with and without bovine-derived surfactant
Text: In order to determine individual activity of CF-301 and DAP against different strains of Staphylococcus aureus in the presence of surfactant, the inventors tested 3 different S. aureus strains and used bovine-derived surfactant (Survanta, AbbVie Inc), which is a functional equivalent of human surfactant. Minimum inhibitory concentration (MIC) determination was preformed using methicillin resistant strain (MRSA) MW2 (FIG. 1A), methicillin-susceptible (MSSA) strain ATCC 29213 (FIG. 1B), and vancomycin-intermediate Staphylococcus aureus (VISA) strain ATCC 700699 (FIG. 1C), in the presence of increasing concentrations of surfactant (FIG. 1). MIC values were determined by broth microdilution according to Clinical and Laboratory Standards Institute. M07-A9. Methods for dilution antimicrobial susceptibility tests for bacteria that grow aerobically; approved standard. 8th ed. Wayne, Pa.: CLSI, 2012. Briefly, each strain of bacteria was suspended in growth media using calcium-adjusted Mueller-Hinton broth at the concentration of 5×10^5 colony-forming units [CFU]/mL and exposed to CF-301 or DAP in a series of 2-fold serial dilutions in 96-well polypropylene microtiter plates (Becton, Dickinson, and Company).

Molecule	MIC (Staphylococcus aureus, 24 h, read-out: Starting MIC (without surfactant))	Starting MIC (without surfactant) (ATCC 700699, no surfactant, 24 hours at 35° C.)	MIC increase (VISA, surfactant concentrations 1.25-15%)
CCCCCCCCCC(=O)N[C@@H](Cc1c[nH]c2ccccc12)C(=O)N[C@H](CC(N)=O)C(=O)N[C@@H](CC(=O)O)C(=O)N[C@@H]1C(=O)NCC(=O)N[C@@H](CCCN)C(=O)N[C@@H](CC(=O)O)C(=O)N[C@H](C)C(=O)N[C@@H](CC(=O)O)C(=O)NCC(=O)N[C@H](CO)C(=O)N[C@@H]([C@H](C)CC(=O)O)C(=O)N[C@@H](CC(=O)c2ccccc2N)C(=O)O[C@@H]1C [DAP, daptomycin, reference compound]	2 µg/mL (≈ 1.23 µM)	–	–
B1	–	64 µg/mL	≤ 4 fold
